The other results are listed elsewhere or left out. Repeats are few or missing, and single values can be far off.
What was measured:
Assay in all cases: cell count relative to DMSO control; melanoma cells; higher = more viable cells
Details in all cases: library dose: low library concentration; 72 h
[1] = system: COLO792
[2] = system: COLO800
[3] = system: COLO829
[4] = system: G361
[5] = system: IPC-298
[6] = system: IST-MEL1
[7] = system: LOXIMVI
[8] = system: MEL-HO
[9] = system: MeWo
[10] = system: RPMI7951
[11] = system: RVH-421
[12] = system: SkMel28
[13] = system: SkMel30
[14] = system: SkMel5
[15] = system: UACC257
[16] = system: UACC62
[17] = system: LB2518-MEL
[18] = system: MZ2-MEL
[19] = system: SkMel2
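Note: cell number obtained by counting DAPI-stained nuclei in high-throughput microscope images with image analysis software, screen run in 1,536-well plates.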

Row | SMILES | cell count [1] [%] | cell count [2] [%] | cell count [3] [%] | cell count [4] [%] | cell count [5] [%] | cell count [6] [%] | cell count [7] [%] | cell count [8] [%] | cell count [9] [%] | cell count [10] [%] | cell count [11] [%] | cell count [12] [%] | cell count [13] [%] | cell count [14] [%] | cell count [15] [%] | cell count [16] [%] | cell count [17] [%] | cell count [18] [%] | cell count [19] [%]
1 | N.N.[Cl][Pt][Cl] [cisplatin] + C=CCn1c(=O)c2cnc(Nc3ccc(N4CCN(C)CC4)cc3)nc2n1-c1cccc(C(C)(C)O)n1 [MK1775] (first compound 1.6 µM, partner dose 0.02 µM) | 93.2 | 92.1 | 112 | 81.6 | 99.8 | 93.8 | 84.5 | 88.4 | 98.4 | 97.7 | 76.1 | 72.2 | 89.6 | 91.5 | 83.1 | 81.7 |  |  | 
2 | C[C@]12O[C@H](C[C@]1(O)CO)n1c3ccccc3c3c4c(c5c6ccccc6n2c5c31)CNC4=O [Lestaurtinib] + COc1cc(Nc2ncc(F)c(Nc3ccc4c(n3)NC(=O)C(C)(C)O4)n2)cc(OC)c1OC [Tamatinib] (first compound 0.004 µM, partner dose 0.4 µM) | 70 | 81 | 102 | 97.5 | 74 | 101 | 99.2 | 98.9 | 95.7 | 94 | 121 | 86 | 91.5 | 82.8 | 59.5 | 93.1 | 79.1 | 93.8 | 
3 | C[C@]12O[C@H](C[C@]1(O)CO)n1c3ccccc3c3c4c(c5c6ccccc6n2c5c31)CNC4=O [Lestaurtinib] + O=C(Oc1ccc([N+](=O)[O-])cc1)N1CCC(C(O)(c2ccc3c(c2)OCO3)c2ccc3c(c2)OCO3)CC1 [JZL184] (first compound 0.004 µM, partner dose 1 µM) | 115 | 116 | 108 | 88 | 93 | 103 | 57.8 | 102 | 86.2 | 101 | 101 | 81.3 | 67.5 | 94.9 | 76 | 91.8 | 85.5 | 95.6 | 
4 | C[C@]12O[C@H](C[C@]1(O)CO)n1c3ccccc3c3c4c(c5c6ccccc6n2c5c31)CNC4=O [Lestaurtinib] + C/C(O)=C(\C#N)C(=O)Nc1cc(Br)ccc1Br [LFM-A13] (first compound 0.004 µM, partner dose 2 µM) | 104 | 68.2 | 58.2 | 77.8 | 96.6 | 92.8 | 40.8 | 100 | 78.2 | 97.5 | 99.6 | 80.4 | 84 | 105 | 105 | 88.9 | 94.3 | 103 | 
5 | C[C@]12O[C@H](C[C@]1(O)CO)n1c3ccccc3c3c4c(c5c6ccccc6n2c5c31)CNC4=O [Lestaurtinib] + CN(NC(=O)CC(=O)NN(C)C(=S)c1ccccc1)C(=S)c1ccccc1 [STA4783] (first compound 0.004 µM, partner dose 0.006 µM) | 77 | 89.6 | 113 | 115 | 98.1 | 91 | 106 | 85.3 | 93.6 | 96.4 | 112 | 103 | 93.7 | 105 | 80.5 | 87.8 | 83.6 | 107 | 
6 | C[C@]12O[C@H](C[C@]1(O)CO)n1c3ccccc3c3c4c(c5c6ccccc6n2c5c31)CNC4=O [Lestaurtinib] + CN(C)S(=O)(=O)c1ccc2c(c1)/C(=C/c1cc3c([nH]1)CCCC3)C(=O)N2 [SU6656] (first compound 0.004 µM, partner dose 0.4 µM) | 84.8 | 73.8 | 88.2 | 109 | 94.7 | 94.4 | 63.2 | 97.7 | 86 | 107 | 81.9 | 95.8 | 87 | 103 | 92.1 | 73.3 | 84.5 | 99.3 | 
7 | C[C@]12O[C@H](C[C@]1(O)CO)n1c3ccccc3c3c4c(c5c6ccccc6n2c5c31)CNC4=O [Lestaurtinib] + COc1ccc(COc2ccc(Cc3cnc(N)nc3N)cc2OC)cc1 [GW2580] (first compound 0.004 µM, partner dose 1 µM) | 91.6 | 81.2 | 125 | 91.1 | 100 | 104 | 85.7 | 112 | 85.5 | 101 | 85.5 | 94.1 | 86.1 | 101 | 79.6 | 82.3 | 94.2 | 104 | 
8 | C[C@]12O[C@H](C[C@]1(O)CO)n1c3ccccc3c3c4c(c5c6ccccc6n2c5c31)CNC4=O [Lestaurtinib] + O=C(Nc1cccc(Cl)c1)Nc1ncc(CCNc2ncnc3ccsc23)s1 [SNS314] (first compound 0.004 µM, partner dose 0.0008 µM) | 84.2 | 160 | 91.3 | 122 | 108 | 97.2 | 69.8 | 99.6 | 100 | 128 | 97.8 | 97.6 | 115 | 107 | 89.2 | 95 | 99.8 | 119 | 
9 | N.N.[Cl][Pt][Cl] [cisplatin] + CCN(CC)CCCCNc1ncc2cc(-c3cc(OC)cc(OC)c3)c(NC(=O)NC(C)(C)C)nc2n1 [PD173074] (first compound 1.6 µM, partner dose 0.1 µM) | 98.2 | 89 | 94.8 | 100 | 100 | 99.1 | 81.4 | 96.8 | 105 | 103 | 125 | 77.6 | 102 | 102 | 92.9 | 87.2 |  |  | 
10 | C[C@]12O[C@H](C[C@]1(O)CO)n1c3ccccc3c3c4c(c5c6ccccc6n2c5c31)CNC4=O [Lestaurtinib] + COc1cc2c(Oc3ccc4[nH]c(C)cc4c3F)ncnc2cc1OCCCN1CCCC1 [cediranib] (first compound 0.004 µM, partner dose 0.4 µM) | 93.2 | 152 | 125 | 120 | 108 | 95.5 | 64 | 111 | 98.7 | 113 | 99.4 | 92.4 | 76.7 | 90.1 | 88.5 | 79.3 | 105 | 113 | 
11 | C[C@]12O[C@H](C[C@]1(O)CO)n1c3ccccc3c3c4c(c5c6ccccc6n2c5c31)CNC4=O [Lestaurtinib] + CC(C)(C)c1cnc(CSc2cnc(NC(=O)C3CCNCC3)s2)o1 [SNS-032] (first compound 0.004 µM, partner dose 0.01 µM) | 82.8 | 45.1 | 89.2 | 79.2 | 97.2 | 102 | 92 | 92 | 100 | 89.8 | 117 | 92.8 | 114 | 98.7 | 89.8 | 112 | 87.4 | 96.5 | 
12 | C[C@]12O[C@H](C[C@]1(O)CO)n1c3ccccc3c3c4c(c5c6ccccc6n2c5c31)CNC4=O [Lestaurtinib] + NC(=O)Nc1cc(-c2cccc(F)c2)sc1C(=O)N[C@H]1CCCNC1 [AZD7762] (first compound 0.004 µM, partner dose 0.02 µM) | 73.2 | 123 | 104 | 113 | 106 | 104 | 48.4 | 101 | 86 | 96 | 112 | 99.1 | 87.4 | 111 | 112 | 114 | 98.4 | 103 | 
13 | N.N.[Cl][Pt][Cl] [cisplatin] + O=C(O)c1ccc(-c2c[nH]c3ncc(-c4ccccc4)cc23)cc1C1CCCC1 [GSK650394] (first compound 1.6 µM, partner dose 0.16 µM) | 98.5 | 77.8 | 104 | 92.2 | 97.2 | 90.8 | 80.8 | 79.8 | 86.9 | 128 | 76.1 | 99.5 | 89.7 | 103 | 114 | 92.6 |  |  | 109
14 | C[C@]12O[C@H](C[C@]1(O)CO)n1c3ccccc3c3c4c(c5c6ccccc6n2c5c31)CNC4=O [Lestaurtinib] + COC(=O)c1sccc1S(=O)(=O)Nc1ccc(Nc2ccccc2)cc1OC [GSK0660] (first compound 0.004 µM, partner dose 1 µM) | 95.1 | 90.7 | 141 | 126 | 92.9 | 107 | 128 | 113 | 96.9 | 121 | 95.6 | 89.6 | 84.5 | 107 | 95.5 | 97.8 | 98.7 | 109 | 
15 | C[C@]12O[C@H](C[C@]1(O)CO)n1c3ccccc3c3c4c(c5c6ccccc6n2c5c31)CNC4=O [Lestaurtinib] + O=c1cc(-c2cccc3c2Sc2ccccc2S3)oc(N2CCOCC2)c1 [KU55933] (first compound 0.004 µM, partner dose 1 µM) | 96.8 | 109 | 121 | 91.3 | 92.3 | 95.2 | 136 | 84.8 | 94 | 91 | 123 | 85.4 | 73.1 | 101 | 80.9 | 94.6 | 86.3 | 103 | 
16 | C[C@]12O[C@H](C[C@]1(O)CO)n1c3ccccc3c3c4c(c5c6ccccc6n2c5c31)CNC4=O [Lestaurtinib] + Cc1cc(SCc2sc(-c3ccc(C(F)(F)F)c(F)c3)nc2C)ccc1OCC(=O)O [GW0742] (first compound 0.004 µM, partner dose 2 µM) | 109 | 110 | 103 | 116 | 97.4 | 103 | 89.8 | 95.7 | 100 | 124 | 98 | 115 | 89.4 | 122 | 99.7 | 113 | 88.7 | 98.5 | 
17 | C[C@]12O[C@H](C[C@]1(O)CO)n1c3ccccc3c3c4c(c5c6ccccc6n2c5c31)CNC4=O [Lestaurtinib] + C=CCn1c(=O)c2cnc(Nc3ccc(N4CCN(C)CC4)cc3)nc2n1-c1cccc(C(C)(C)O)n1 [MK1775] (first compound 0.004 µM, partner dose 0.02 µM) | 87.7 | 121 | 106 | 93.9 | 95.3 | 106 | 143 | 117 | 81 | 117 | 102 | 81.5 | 68 | 86.4 | 93.5 | 63.9 | 103 | 99.1 | 
18 | C[C@]12O[C@H](C[C@]1(O)CO)n1c3ccccc3c3c4c(c5c6ccccc6n2c5c31)CNC4=O [Lestaurtinib] + c1cc(-c2cnn3cc(-c4ccc(OCCN5CCCCC5)cc4)cnc23)ccn1 [Dorsomorphin] (first compound 0.004 µM, partner dose 0.4 µM) | 102 | 105 | 101 | 88.5 | 105 | 99.8 | 109 | 77.8 | 80.5 | 107 | 95 | 112 | 93.9 | 81 | 101 | 105 | 101 | 106 | 
